According to the supplement of paper PMC10126150:
Sequences with one replicate were seen in a single cluster, so their values are uncertain.

Tested on: ATP
Test: switch fluorescence ratio, 500 uM ATP over buffer (Cy3 cluster intensity, sum of 5 cycles each) (fold (ratio)); higher = stronger signal-on switching upon ATP binding; sequences stand for … in TCGTCGGCAGCGTCAGATGTGTATAAGAGACAGTTTTTTTTTTTTTTTTTTTTTTTTT…TC
Conditions: aptamer strand: ATP DNA aptamer (quencher-CACCTGGGGGAGTATTGCGGAGGAAGG + anchor), 100 nM annealed; ATP concentration: 500 uM; one replicate
Outline: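 Exposure to 500 uM ATP lasted 15 min at 22 °C before imaging, and a selection-buffer image was taken beforehand, for Cy3-labelled switching-strand clusters on a modified Illumina MiSeq flow-cell annealed to 100 nM quencher-labelled ATP aptamer. Five buffer/ATP cycles were run with NaOH stripping and re-annealing between them. The fluorescence ratio per cluster is summed target-cycle over summed buffer-cycle Cy3 intensity, averaged per switch-domain sequence. Clusters outside 100-1000 RFU were excluded.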

Sequence | switch fluorescence ratio
TCACAGAATT | 0.985
GTTGCAAATG | 0.973
CGGCCCGTCA | 1
TATCGTTAAA | 0.981
TCAAAGACTC | 1.03
TCAGGAGGTC | 0.937
TGAGACATGG | 0.999
GGGATGAGTC | 1.01
AGTGTGACGC | 0.933
GATTGCTGAA | 0.992
ATGCTATGCC | 1.4
TGGATTGGTC | 0.994
CTAGCTCTGT | 0.952
TACCCTAAGC | 1.05
TTGGATGCAA | 1.07
GAGTCCCTGG | 1.06
TATTTAGCGC | 0.984
GACAAAAATT | 0.996
GACATCTATG | 1.02
AATTAGGTAT | 0.975
GGCGTGCTGG | 0.998
CAGGCTGTGG | 1.02
GGAGTTCACC | 0.939
GTTTCGAGCA | 1.1
GCACTGAGCG | 0.991
AGGCTGAGAA | 0.977

Sequence | switch fluorescence ratio
AGTTGGGAGT | 0.988
ACAGCTGGAT | 1.04
CCAGAAATTA | 1
CAAGTCTACA | 1.05
AAAGAGTTAG | 0.956
CAGTCCTCGG | 1.07
GGTACCGGAT | 0.966
GAAGTTAGGA | 0.98
AAGCCAGACT | 1.23
CGCGATTTCG | 1.05
TGGAGACGGT | 1.25
GGGAAGAACG | 0.962
ACCAATATGG | 1.02
GAGGTTACTC | 0.989
GCAGGATGAT | 0.986
TAAGATGGGT | 1.01
TCGCACTTTA | 1.07
ATAAAAAGG | 1.02
AACGGCTTTC | 1.05
GTAATAAGG | 0.967
TAATCGATG | 0.945
GTGCGAGAAT | 1.01
TGTTTTACTT | 1.09
AAAAGCGTT | 1
TGATAGATAA | 1.05
AGACACTCA | 1.1

Sequence | switch fluorescence ratio
TGTTGGTAGA | 1.02
CCCCGTTGCG | 1.07
CCAATGGGAG | 1.02
TCTTATCTCT | 1.02
GGGTACTTTA | 1.01
GTAGTGGGCG | 0.993
GCCAAATGAC | 1.19
GCGCGGCAGG | 1.05
CTAGTCGACG | 0.995
AAGCGACCTG | 1.01
TATATACGAT | 1.06
ACACAGCCGG | 1.09
ATAATCGGAT | 0.997
CTCGGGCGAG | 1
GTTTACACGA | 1.01
CTCATGTATG | 0.981
AAAGTAAACA | 0.977
GGGGTACCGC | 0.97
GACCGGTAAT | 0.988
GACTCTGAGC | 1.03
CATAAGCACT | 1.3
GATGTTGTA | 0.954
GGTGCAGGG | 1
GGATTTTCCT | 1.02
GGGGTCCCCC | 1.36
GTATGAGAGC | 1.03

Sequence | switch fluorescence ratio
CCTGGGTGTA | 1.44
AAACGGTCGG | 0.989
GGTTTGCTAT | 0.973
GTTTAAAATT | 1.02
CTTCGAGTTC | 1.21
TGAGACCAGC | 1.06
GCCTCTCTAA | 1
TCGCGGATGG | 1.01
AGATCCGGT | 0.996
CTAACAGTGG | 0.995
ATCCCAGCTT | 0.994
GTTGAACGAG | 0.976
GAGTCAGGGG | 1.07
TGGCATCTT | 1.01
ACATTCTGAA | 0.965
TATTAACCTA | 1.04
CGATAGGGAA | 0.984
GCGATGTGCA | 0.99
AAACGTGAAA | 1.01
TTTTCCAACT | 0.957
CCCAATATCT | 1.88
CAACCGGGAT | 1.16
GCGGCTGTGT | 0.977
ACCTCGATCT | 1.15
GGATGAAGCG | 0.999
CATATTAAGG | 0.941

Sequence | switch fluorescence ratio
CATCGGTAAG | 1.02
AGTTTAATGA | 1.06
ATGCGCGATT | 1.06
AACCGTGGCT | 1.04
GACTTACTAG | 1.11
AGTGAGAATG | 1.05
TTTTATGATA | 0.983
ATGGCAAAAT | 1.01
CTCTGACGCG | 0.978
TATAGACGCA | 1.09
TATCCAGAAG | 1
CCCATTAATT | 1.42
TGCGCAAAAA | 0.967
TGGTGATCTT | 0.991
CCCGGGGACC | 1.04
TTAATGTGA | 0.998
ATGTGTATCA | 0.975
GGGCTCCGTG | 0.791
GGGAGGCTGT | 0.991
TTTCTAGCAC | 1.18
AGGTGGACTT | 1.04
CAAAGGGTCA | 0.979
TTTGGCGACG | 0.958
TCTGGCGGCG | 0.983
ACTTGCCCAA | 1.04
CAACTTAACA | 1.09

Sequence | switch fluorescence ratio
ATGAATCACT | 1.01
GAAATCCTTT | 0.996
GCCGGGGT | 0.992
GATCGTTTAG | 1.02
CACTCGTTCC | 1.29
ATCGTACCAA | 1.14
TGAGAGAGCG | 1.14
GACCTTGTTG | 1.02
GAACTGCCCA | 0.982
TCCAGTGCGT | 1.03
GGCTGAGTTT | 0.961
CTTTTTCAG | 0.985
CGATTAATAT | 1.01
AGTATTCCCA | 0.99
GGGGGAGATC | 1.07
AAAATACCG | 1.09
ACACTAGAAT | 1.01
CGCGGACGAA | 1.02
TGAGGATAAC | 0.998
GCGATGGGT | 1
TTCGACACTT | 1.03
CCAGTAAAG | 1.02
ATTCAAGCGA | 1.05
GGCCACGGTG | 1.54
GGACCCGGAA | 1.28
GTCGCATACT | 3.13

Sequence | switch fluorescence ratio
GATTTCGTCG | 0.992
CGTAGGGCGG | 1.03
TAGTTCAAAT | 1
TGTCTGTGTG | 0.989
CGTGGAATAG | 1.21
TGCTTCTCCC | 1.26
TTTATAGGCC | 0.981
AAATGTCAGT | 0.974
GACCCGAGG | 0.928
TACCCCACGG | 1.63
ATAAAACCG | 0.98
CTTGGACCT | 1.31
TCGTAAAAAG | 1.04
AGCTCTCGGT | 0.964
AGACTCGTAA | 1.07
AGTCTCAGAG | 0.988
ACGAAGCATG | 4.84
GAGGGTCATT | 1.03
TGCAGAAATG | 1.09
GTTAGATTCG | 1.02
TTCCGCGCGT | 1.05
GCCACCATCG | 0.989
TCTTGGATTT | 1.01
TCATAGGGAG | 0.977
TTGCTACGTA | 1.12
CGGTGCGCCA | 1

Sequence | switch fluorescence ratio
AGGCACTGG | 1.06
CAGGCGTCT | 1.06
TCATGAAA | 1.04
GGTGTAGTCC | 0.957
AACCGCACGT | 1.62
ATTAACGAAG | 0.988
TATTATTCTC | 1.03
GCGCATGTA | 1.04
GCGTGAGCAA | 1.03
ATACGGCAGA | 1.03
TGGGAGACAG | 0.964
CCAGCATCTT | 1.04
GAATCGGCAA | 3.88
GATTCAATTA | 1.02
TTTGCGACT | 0.961
CAGTAGCATG | 1.59
ATGCGCAGTT | 1.01
CTTGTAAAGC | 1.06
GATAAGGAAA | 1.02
